The full ranking holds about 33,000 sequences; the median of “E-score (-0.5 to 0.5)” is about -0.036, and the highest 2% start at about 0.37. The list shows a part of the results.
These sequences were tested against T1, Yer064c (UniProt P40041) (assay: PBM E-score (8-mer binding enrichment) (E-score (-0.5 to 0.5)); higher = stronger / more preferred TF binding; most listed sequences are background and not binding sites). Conditions: protein concentration: 200 nM; construct: GST-full length.
T1 sequence: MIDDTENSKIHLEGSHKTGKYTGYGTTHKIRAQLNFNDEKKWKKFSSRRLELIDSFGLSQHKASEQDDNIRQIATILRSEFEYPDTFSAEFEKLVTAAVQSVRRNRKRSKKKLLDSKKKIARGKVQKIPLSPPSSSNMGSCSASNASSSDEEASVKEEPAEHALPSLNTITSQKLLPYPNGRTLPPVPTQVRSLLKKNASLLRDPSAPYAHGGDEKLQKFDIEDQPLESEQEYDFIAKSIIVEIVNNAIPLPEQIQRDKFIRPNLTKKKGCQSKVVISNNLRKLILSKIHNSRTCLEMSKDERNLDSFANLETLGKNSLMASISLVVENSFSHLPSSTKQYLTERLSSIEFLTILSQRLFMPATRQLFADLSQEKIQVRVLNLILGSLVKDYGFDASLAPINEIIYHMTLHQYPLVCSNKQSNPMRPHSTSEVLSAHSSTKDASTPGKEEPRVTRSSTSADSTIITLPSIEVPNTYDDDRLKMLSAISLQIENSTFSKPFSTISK
In short: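 GST-tagged yeast TFs (full-length or DNA-binding domain) were made by PURExpress in vitro transcription/translation and applied at about 100-200 nM to universal all-10-mer Agilent arrays. The arrays were made double-stranded by primer extension, on fresh or once-stripped slides. Bound protein was detected with fluorescent anti-GST, and scans were normalised with masliner. Each ungapped eight-base word, pooled with its reverse complement, received an E-score (modified Wilcoxon-Mann-Whitney statistic) from the Universal PBM Analysis Suite.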

Row | Sequence | PBM E-score
1 | CTCACAAC | 0.143
2 | AACCGGAC | -0.148
3 | CGCGAGAG | -0.16
4 | ACGGAAAA | -0.047
5 | ATGGTCAC | 0.0768
6 | ATCCCAGA | -0.207
7 | TCTATGAA | 0.0776
8 | CCAAAACA | -0.0588
9 | CCACAGAG | -0.00502
10 | GGCTGCAA | -0.0494
11 | ACCTGCCA | -0.26
12 | TGCTTCAA | -0.0458
13 | ACATTCCA | -0.0571
14 | CAATTTCG | -0.209
15 | ACTAATCA | 0.403
16 | AATGGAAG | -0.0716
17 | CTGCCGAA | -0.0478
18 | ACGACATC | -0.208
19 | CACTACCC | 0.00286
20 | ACTGGCGA | 0.0456
21 | CCTGGAAG | -0.1
22 | ACACCGAG | 0.0581
23 | CAGGATCG | -0.0528
24 | ACTAGCGC | 0.103
25 | CCCGGAAA | -0.0462

Row | Sequence | PBM E-score
26 | AAAGAGAG | -0.148
27 | CATAAGGA | -0.0677
28 | AGTCATCC | 0.49
29 | GCGCGTAC | -0.116
30 | CAGCCCGG | -0.255
31 | AGGCTCTA | -0.236
32 | CCCATCGG | 0.0685
33 | CTCCGACA | 0.00959
34 | ACTCTTGG | 0.186
35 | ATCGCTCC | -0.163
36 | TCAAGAGA | -0.0143
37 | TCATATCA | 0.209
38 | CCATCCAC | -0.194
39 | CCGCAACG | -0.112
40 | ATTATCAA | 0.14
41 | AACTGATC | 0.12
42 | ATAGGGTG | -0.106
43 | GTTGGATA | 0.0253
44 | ACTATGAC | 0.372
45 | ATTTGTCG | -0.0532
46 | ACGAACTG | -0.0432
47 | AAATTACG | -0.0646
48 | AGGGATGC | -0.32
49 | ACGTAAGT | 0.199
50 | AAGCCTTG | -0.0941

Row | Sequence | PBM E-score
51 | ACCTTGAA | 0.0165
52 | CCGGAGCC | -0.343
53 | ATACGATA | 0.106
54 | GCCTGGCC | -0.291
55 | CCTATCCA | -0.147
56 | GACTATGC | 0.397
57 | TCACATCA | 0.118
58 | CCTCATGA | 0.16
59 | AGGGCTAT | -0.329
60 | ACCTAGTC | 0.33
61 | TACACGAA | 0.0233
62 | ATCCGTTG | -0.037
63 | GACCACCC | -0.22
64 | ATGGATGA | 0.106
65 | CAAGAGGG | -0.217
66 | TACGGGAA | -0.214
67 | AGGAGTTA | -0.00713
68 | CGGGAGAA | -0.141
69 | AACGTATG | -0.0964
70 | ACCACCCG | -0.0525
71 | AGATGATG | 0.149
72 | ACCCCAGT | -0.0149
73 | CAGGAAGG | -0.154
74 | CTTCCATA | 0.0346
75 | CAGGTAGA | -0.164

Row | Sequence | PBM E-score
76 | GTCGTTTA | 0.153
77 | GGGGGGCA | -0.143
78 | GGCCGTTA | -0.278
79 | ACGGGCTG | -0.127
80 | AGTTAACG | 0.097
81 | GGCTAGCC | -0.234
82 | TGACCCCA | -0.0339
83 | CAGTCTAA | 0.0864
84 | TCGGTAGA | 0.1
85 | AAAATCTT | 0.157
86 | AGAGGGAG | -0.0371
87 | CTTAGACC | 0.0119
88 | ACAGTGAG | 0.123
89 | ACCGGCAC | 0.0231
90 | GCTCACTA | 0.102
91 | AATTACCT | 0.0151
92 | CTTAGCTC | -0.0993
93 | GGGCATTA | -0.171
94 | CCTTCCAC | -0.274
95 | CCTCTTCC | -0.321
96 | ACTTGTAC | 0.0162
97 | ATGGTAGC | -0.214
98 | GACGAACC | -0.0385
99 | GCCCAGTA | -0.183
100 | TACCCTCA | -0.121

Row | Sequence | PBM E-score
101 | AGGGGCTC | -0.298
102 | CCAGCGCA | -0.168
103 | AAGGTACC | -0.198
104 | GTTACAAA | 0.134
105 | CGCGGTTC | -0.0489
106 | TAAGCGTA | -0.0328
107 | AGGAGGCG | -0.337
108 | GAGGCACA | -0.0696
109 | CTATATAG | -0.02
110 | AGCCTGCA | -0.0726
111 | ATTGCCGA | -0.0492
112 | AGAATGGA | -0.0129
113 | CTTCCCCA | -0.129
114 | CCAATTTA | 0.0761
115 | AACGCCTC | -0.31
116 | CCAGTAAC | -0.0881
117 | CTAAAGTA | -0.0185
118 | GGTGTACA | -0.139
119 | ACAACCTC | -0.278
120 | ACCCGTAG | -0.131
121 | CGCTTATC | -0.0597
122 | CAGGGGCG | -0.244
123 | ATCGCAAG | 0.0475
124 | CTGTGTGA | 0.114
125 | CATTGCGG | 0.00493

Row | Sequence | PBM E-score
126 | AACGACCT | 0.08
127 | GCGTGTGA | 0.0238
128 | TTCATGAA | 0.24
129 | CAGCGCGA | -0.12
130 | GGAGTAAC | 0.0622
131 | AGCGATCA | -0.0759
132 | CGCTACCG | -0.267
133 | GGTCTCTA | -0.17
134 | AGCATAGC | -0.0852
135 | GGTTGGTA | -0.0591
136 | GCATCCCA | -0.162
137 | AAAGCAGG | 0.0666
138 | TGCCGGCA | -0.405
139 | CATGGGGG | -0.139
140 | GCCCCGAA | -0.23
141 | CAGCTCTA | -0.207
142 | CTATGATA | 0.00827
143 | AAGTTCCG | -0.118
144 | GTGCAGGA | -0.211
145 | AAAAATCG | -0.149
146 | AAGCTCCT | -0.0527
147 | AAACGGGA | -0.154
148 | ACTTCTTA | -0.0384
149 | TACTGAGA | 0.127
150 | CTTGTGGC | -0.085

Row | Sequence | PBM E-score
151 | ATTATAAT | 0.183
152 | GTACGTTA | 0.0289
153 | ACCTCCGT | -0.0377
154 | CACTTAAC | 0.11
155 | CACGGCAC | -0.095
156 | GGGTCTTA | 0.0907
157 | ACAATCAG | 0.157
158 | ACGCCAGT | -0.091
159 | ACCAACTC | 0.0794
160 | CCAGAAAC | -0.141
161 | CTTATACC | 0.0132
162 | AGTCTAAA | 0.288
163 | CTTCCGAC | 0.0148
164 | GGGGCCCC | -0.304
165 | GTTTCGTA | 0.0435
166 | AAGTTGCA | -0.213
167 | AAGCGGCA | -0.244
168 | GAAGCAAA | -0.0233
169 | AGTACGAT | 0.123
170 | CGGGGCGA | 0.0815
171 | AACCCAAG | -0.0942
172 | CAGTAGGC | -0.0618
